# Source: the antibiotic and cytotoxicity screens of Wong et al. (2023)
# The list shows a part of the results.
# Tested on: HSkMC (human skeletal muscle cells)
# Test: cytotoxicity call (relative viability < 0.9)
# Details: 10 µM
row,SMILES,cytotoxicity call
1,COCC(=O)N[C@@H]1C=C[C@@H](CC(=O)N2CCCCC2)O[C@@H]1CO,inactive
2,CN1C(=O)c2cc(NC(=O)Nc3cccc(C#N)c3)ccc2OC[C@H]2O[C@@H](CC(=O)Nc3ccc4c(c3)CCC4)CC[C@@H]21,inactive
3,C[C@H]1CN([C@@H](C)CO)C(=O)c2cc(NC(=O)CCN3CCOCC3)ccc2O[C@H]1CN(C)S(=O)(=O)c1cccs1,inactive
4,C[C@H](CO)N1C[C@H](C)[C@@H](CN(C)C(=O)Nc2ccc(F)cc2)OCCCC[C@H](C)Oc2ccc(NS(=O)(=O)c3cccs3)cc2C1=O,inactive
5,C[C@H]1CCCCO[C@@H](CN(C)C(=O)Nc2ccc(C(F)(F)F)cc2)[C@@H](C)CN([C@@H](C)CO)C(=O)c2cc(NS(=O)(=O)c3ccc(F)cc3)ccc2O1,inactive
6,C[C@H](CO)N1C[C@H](C)[C@H](CN(C)S(=O)(=O)c2cccs2)Oc2c(NC(=O)C3CC3)cccc2C1=O,inactive
7,C[C@H](CO)N1C[C@H](C)[C@@H](CN(C)C(=O)Nc2cccc3ccccc23)Oc2c(NC(=O)Nc3ccc(C(F)(F)F)cc3)cccc2C1=O,inactive
8,Cc1noc(C)c1NC(=O)Nc1ccc2c(c1)C(=O)N([C@H](C)CO)C[C@@H](C)[C@@H](CN(C)Cc1ccc(Cl)c(Cl)c1)O2,inactive
9,COc1ccc(CC[C@@H](OC(=O)[C@H]2CCCCN2C(=O)Cc2ccccc2)c2cccc(OCC(=O)O)c2)cc1OC,inactive
10,CC(C)N(C[C@H]1O[C@@H](n2cnc3c(N)ncnc32)[C@H](O)[C@@H]1O)[C@H]1C[C@@H](CCc2nc3ccc(C(C)(C)C)cc3[nH]2)C1,inactive
